{
  "source": "paper PMC12136788",
  "binders": {"B1": {"name": "chr1:46159212:46159213:+_ENSG00000159596_ENST00000372025|hu_mus|hu_hu_hu_mus_True|8_28 (ssRNA)", "RNA": "GGGAGUUCUACAGUCCGACGAUCUCUGAUCCCUCCCAAGAAAGCUAGGAAACCGGCUCCAUAAGCCAUCUGAGUGAAAGCUAGGACGGGGAUAUAAGACUUUGUUAUCAGCAUGACAAGUGGGGGAGCAACGAAGGGGAUUAACAACAGAGGAUUGAGCAUCA"}, "B2": {"name": "chr2:73747962:73747963:-_ENSMUSG00000018770_ENSMUST00000018914|mus_mus|FALSE|FALSE (ssRNA)", "RNA": "GGGAGUUCUACAGUCCGACGAUCAGAGCCCUCUCCAGUCCUAGUCUCUGGCCGAGAUAACACUGAUGCAGAAAUUGGUCUAUAUGCAACUCUGGAUCCAGCUCGGAUCAGAGCGGGGGUGCGGGCGAGCUUGGCGCAGGCGAACAACAGAGGAUUGAGCAUCA"}, "B3": {"name": "chr1:39494447:39494448:+_ENSG00000168653_ENST00000372967|hu_hu|motif|central (ssRNA)", "RNA": "GGGAGUUCUACAGUCCGACGAUCGCAUCGACCAGCCAUCUUGUAGGGCUGUUCACCACUCUGGAUUGUCAACCAUCGAUCGGUGUUAAGGCCGAACCUUUUCUGGAUGUCCAAGAAAGGCAUGGCCGAUGCUCGUGCCCUUGACAACAGAGGAUUGAGCAUCA"}, "B4": {"name": "chr3:95749504:95749505:+_ENSMUSG00000015749_ENSMUST00000165307|mus_hu|motif|central (ssRNA)", "RNA": "GGGAGUUCUACAGUCCGACGAUCUAUUAUAGCAAACUGUAAUUUCAGUUAAUUUAUAAAUAAGGAAUGAAAUGCACCAUACGGCACCUGUGUAAAAGUGAUCAUGUUUUAAUUAUGGGCUAAAAAUGACUAAUACAGUAAGCUCAACAGAGGAUUGAGCAUCA"}, "B5": {"name": "chr5:144935201:144935202:+_ENSMUSG00000038970_ENSMUST00000041804|mus_mus|motif|central (ssRNA)", "RNA": "GGGAGUUCUACAGUCCGACGAUCCAUUAGAUCAAAUAUUUUUUGGUGACUGGGCAGGUCAUCUGCUUUGUCAAGGUCACGGAAUAGGUUGAAAGGGCUCCCAGGGAUGCUGGUAGCACGUGAGUCCUCGGUAGAGCUGGCUUCCAACAGAGGAUUGAGCAUCA"}, "B6": {"name": "chr8:13147844:13147845:+_ENSMUSG00000031446_ENSMUST00000016680|mus_mus|motif|central (ssRNA)", "RNA": "GGGAGUUCUACAGUCCGACGAUCAAUAUUAACAAUUUGUAGACACAAUGAACUUAAAAAUAAGAAGUAGAAAUAGAAAUCGGUUUGGUCUUUCAGAGACCACAUCAUAGAACUCAUAAAUGAAAAUGUACAAAUAUAGAAAUGCAACAGAGGAUUGAGCAUCA"}, "B7": {"name": "chr11:100882373:100882374:+_ENSMUSG00000019302_ENSMUST00000044721|mus_mus|mus_mus_mus_hu_True|48_68 (ssRNA)", "RNA": "GGGAGUUCUACAGUCCGACGAUCUUCCUGGUUUGUGUUGAUUUCCUUCAGUUCAUUUUCAAUCUUCUCGAAAUUGGCCUCUAAGUCGAUCAUGUCCCGGGGGAAGGGAACCUCUGGGUUUUCACCGGUGUCCAUAAUCGGAAUCAACAGAGGAUUGAGCAUCA"}, "B8": {"name": "chr10:33190432:33190433:-_ENSG00000150093_ENST00000302278|hu_mus|hu_hu_hu_mus_True|18_18 (ssRNA)", "RNA": "GGGAGUUCUACAGUCCGACGAUCUACAUUUUCCAAACCUGCAUGUGAAUAAAACCCUGGCCACAGAGCCCCAAAACUACCCUACUGUGACUAAGAUGCUGCUGCUGUGAGCUUGGUUGUUGUGGGACCGCCUGAGUAGGAUUCCAACAGAGGAUUGAGCAUCA"}, "B9": {"name": "99831459_99835722_1545_CDS_ENSMUSG00000023025_ENSMUST00000100206|mouse|control|control (ssRNA)", "RNA": "GGGAGUUCUACAGUCCGACGAUCAUCAAACUUCGGAGUUGGAGCCUUGGCUUCAGUUGCUGCAGGUUGGGGUCUUGGGAUCCUGUCAUCAUCCCUUCGCCUUCGGCCUCUGAAGAGAGUUCGCCUGCCUCUUCCAAAGUCCCCCAACAGAGGAUUGAGCAUCA"}, "B10": {"name": "81440336_81440456_2144_CDS_ENSMUSG00000049106_ENSMUST00000054145|mouse|control|control (ssRNA)", "RNA": "GGGAGUUCUACAGUCCGACGAUCGAGCCAUUUGUAAGCUUUGUAAAUCUUACGCUCAACUGAUUCCAUGUUGGCGGCUGGUGGUGCCCGGCUUGGCUGAACAUCCAGAGUGGAAGCGCUCCGCUCAGGGGAGGAGUCUGGGGACAACAGAGGAUUGAGCAUCA"}, "B11": {"name": "chr4:48381769:48381770:+_ENSG00000109171_ENST00000512093|hu_mus|FALSE|FALSE (ssRNA)", "RNA": "GGGAGUUCUACAGUCCGACGAUCCUUAUAGUUGGAUCCAAUUGAAUCUUCAUCUAAUUCUGAAGCACUUAACUCACUAUCUAUAGAGGACUGAGGGCUGAGUGGAGGGUUUCUAUCUGAUGAACUUUUGAAGUUACCUGAAUUCAACAGAGGAUUGAGCAUCA"}, "B12": {"name": "chr2:157388114:157388115:+_ENSMUSG00000067786_ENSMUST00000109526|mus_hu|motif|central (ssRNA)", "RNA": "GGGAGUUCUACAGUCCGACGAUCUUGUAGAGGUGGUCCCUGUCCUCCAGGAGCUUACAAUCUAGCUGGGGAGACACAACGGAUGCACACUUAAACAAUCAGUACAAUUAGCGAUUACCACAAUAUUGACCACAACUGCAUGAGCAACAGAGGAUUGAGCAUCA"}, "B13": {"name": "chr10:88205819:88205820:+_ENSMUSG00000060904_ENSMUST00000116234|mus_mus|motif|central (ssRNA)", "RNA": "GGGAGUUCUACAGUCCGACGAUCGUUGGCUCACAGGCGCUGACGUGAAUGGGCUCACUGUCUGCUUUUCAGGGUUUCAACGGACCAUUCCAUUGCCUCAUCAAGGCCAGUGCCUUUGGUUGCUGAAGUUUUAAAGAUCUGCCACAACAGAGGAUUGAGCAUCA"}, "B14": {"name": "chr16:94651144:94651145:+_ENSMUSG00000040785_ENSMUST00000117648|mus_hu|mus_mus_mus_hu_True|58_68 (ssRNA)", "RNA": "GGGAGUUCUACAGUCCGACGAUCAUUUUCUUGAAUCAAGUGGCGAAUAACAUAGUCCACUGCUUCAUGGACAAAAUUUUUGCUAGAAAAACAGGUUGUAUAGUCUUCUGUGCUCAAAACUUUCCAAGAAAGCAAUUCUUUGAGCAACAGAGGAUUGAGCAUCA"}, "B15": {"name": "chr19:55172049:55172050:-_ENSMUSG00000024978_ENSMUST00000061856|mus_hu|motif|central (ssRNA)", "RNA": "GGGAGUUCUACAGUCCGACGAUCUGUGUGCUUACAUCGACCAACACUGUAUUCUGAUGAAUGUGGCAGAUAAGAAACAUCGGUUGUACCAAGGGUCAGUGCAGAUUCAUCCAUGUCACAAAGUGUAAUUCCCAAAUCAUGUGCCAACAGAGGAUUGAGCAUCA"}, "B16": {"name": "chr7:135612270:135612271:-_ENSG00000105887_ENST00000393085|hu_mus|hu_hu_hu_mus_False|28_88 (ssRNA)", "RNA": "GGGAGUUCUACAGUCCGACGAUCGUUUUUUUCUGAGAUGUUAAAUAUUCAGUGGAGGGAAAACAAAACUUAACCUUUUAUUAAUGCGUGUUGUACCAAAAGCAGACCAUGGUUUUACAUUUAUUCAAAAAUAUUAACAUUAAGCAACAGAGGAUUGAGCAUCA"}, "B17": {"name": "chr6:38652254:38652255:-_ENSG00000124767_ENST00000373365|hu_hu|hu_hu_hu_mus_False|78_78 (ssRNA)", "RNA": "GGGAGUUCUACAGUCCGACGAUCCGAGAACUUCAUAGCAGGGAAGUCAAGCUUCUGGAUUAGCGUCAGUCCAAGAACCCUCGUAUAAAAAUCCAGGGACUUCUUAGGAUCCUUAAUUCUUAGCAUCGUUUGCUGCAGUAGAAACAACAGAGGAUUGAGCAUCA"}, "B18": {"name": "chr18:48606039:48606040:+_ENSG00000141646_ENST00000342988|hu_mus|motif|central (ssRNA)", "RNA": "GGGAGUUCUACAGUCCGACGAUCAGUAUACAUGUGUGUCUGUGGUACAGUCAAUGUGUCUUAACUCCUCCACUUCAAUCUCGGCAAAGUCACCGCCAAGUGAUCAAGGAUGGCAAACACAGGGCUUAUAACCAAAAGGUAUAACAACAGAGGAUUGAGCAUCA"}, "B19": {"name": "chr17:29226239:29226240:-_ENSG00000172171_ENST00000306049|hu_hu|FALSE|FALSE (ssRNA)", "RNA": "GGGAGUUCUACAGUCCGACGAUCUAAUUAUACUUUAGCACGUUAACCUCAGAAUUCUAAGGCUGAGAGUCAAACACUGCUAAUUCAUAGAAGGCAAUAGCUUGUAAUAAUGAAUCAUAAAGCUCUUCUACUCUUUGUAGUUCACAACAGAGGAUUGAGCAUCA"}, "B20": {"name": "chr9:14812383:14812384:-_ENSMUSG00000031934_ENSMUST00000164273|mus_mus|mus_mus_mus_hu_True|78_78 (ssRNA)", "RNA": "GGGAGUUCUACAGUCCGACGAUCAUAGCCCAGGUAGAUACACGCUAACAGUAUAAUCACAAAUGUCAGCAGGCGGCAGCUAAUGUACUUGAUGAUUAAAUUAUUAGAAUUUUUCUUUGUCUUCAAGUACUGCUCCACAAUUGGCAACAGAGGAUUGAGCAUCA"}, "B21": {"name": "31664629_31664749_1412_3pUTR_ENSG00000169926_ENST00000307145|human|control|control (ssRNA)", "RNA": "GGGAGUUCUACAGUCCGACGAUCGAAAGGGGGUUCAACAACGCUGAAUCUCAACUUUGUGGGUGUAUCUAUUGUGCAAUUUGGUGGGUGGUGUUUUUUGAAAUUUUUGUGUUUUUUUUGUUUUUUUAACAAAUUUACUUUGACCAACAGAGGAUUGAGCAUCA"}, "B22": {"name": "chr6:122779733:122779734:-_ENSG00000111897_ENST00000339697|hu_hu|FALSE|FALSE (ssRNA)", "RNA": "GGGAGUUCUACAGUCCGACGAUCCAACAUUACACAAGCUACACAUACUCCAACAAGCAAGAAAAGUGCAUAGAUCAAUCUAGUUACAGUGGAGUUGUUUCCACUAGGACAGCAUCGGCAUAGCAAACACGGGGCACUUCCACACAACAGAGGAUUGAGCAUCA"}},
  "note": "The other results are listed elsewhere or left out.",
  "data": [
    {"target": "T1, UNK ZnF1-3 (human, UniProt Q9C0B0 31-174)", "T1 sequence": "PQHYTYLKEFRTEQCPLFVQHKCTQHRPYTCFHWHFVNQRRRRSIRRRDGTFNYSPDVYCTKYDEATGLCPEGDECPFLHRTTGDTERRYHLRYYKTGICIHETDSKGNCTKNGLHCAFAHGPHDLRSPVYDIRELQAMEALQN", "assay": "nsRBNS (natural sequence RNA bind-n-seq); RBNS binding buffer (assumed for nsRBNS): 25 mM Tris pH 7.5, 150 mM KCl, 3 mM MgCl2, 0.01% Triton X-100, 500 ug/ml BSA, 20 U/ml SUPERase-In, 4 C; UNK is unkempt and MSI1 is Musashi-1; names of the RNAs are library labels; protein concentration not given here; high values mean tight binding", "units": {"binding signal": "enrichment R"}, "values": [
      {"binder": "B1", "binding signal": 1.74},
      {"binder": "B2", "binding signal": 0.996},
      {"binder": "B3", "binding signal": 0.49},
      {"binder": "B4", "binding signal": 1.31},
      {"binder": "B5", "binding signal": 0.917},
      {"binder": "B6", "binding signal": 1.56},
      {"binder": "B7", "binding signal": 0.595},
      {"binder": "B8", "binding signal": 1.27},
      {"binder": "B9", "binding signal": 0.763},
      {"binder": "B10", "binding signal": 1.07},
      {"binder": "B11", "binding signal": 1.21},
      {"binder": "B12", "binding signal": 1.58},
      {"binder": "B13", "binding signal": 0.473},
      {"binder": "B14", "binding signal": 0.463},
      {"binder": "B15", "binding signal": 1.86},
      {"binder": "B16", "binding signal": 1.86},
      {"binder": "B17", "binding signal": 1.18},
      {"binder": "B18", "binding signal": 1.03},
      {"binder": "B19", "binding signal": 0.881},
      {"binder": "B20", "binding signal": 1.55},
      {"binder": "B21", "binding signal": 0.95},
      {"binder": "B22", "binding signal": 1.74}
    ]}
  ]
}
